± gives the standard error. For some of these results: This sample is rich in variants without activity.
B1: glmS ribozyme (parent)
chain: AUAAAAGCGCCAGAACUACAGAAAUGUAGUUGACGAGGAGGAGGUUUAUCGAAUUUUCGGCGGAUGCCUCCAAA

Tests used:
Settings in all cases: with glucosamine-6-phosphate
glucosamine-6-phosphate [1] = variants of: B1; experiment: self-cleavage kobs at 160 uM GlcN6P; higher = faster cleavage; RNA array
Method in brief: (§1)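 Barcoded ribozyme variants were transcribed in situ on sequenced MiSeq chips by E. coli RNA polymerase. At 37 °C, a hybridised Cy3 probe tracked them while glucosamine-6-phosphate (40 μM to 10 mM) in HEPES/KCl/Mg(OAc)2 buffer flowed in and tiles were imaged over ~14 h. Per-tile medians of signals normalised to baseline and to non-cleaving reference variants were fit to one- or two-exponential decays, giving kobs. kcat and KM came from weighted Michaelis–Menten fits across concentrations.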

glucosamine-6-phosphate [2] = variants of: B1; experiment: self-cleavage kobs at 2500 uM GlcN6P; higher = faster cleavage; RNA array
Method in brief: as §1

glucosamine-6-phosphate [3] = variants of: B1; experiment: self-cleavage kobs at 640 uM GlcN6P; higher = faster cleavage; RNA array
Method in brief: as §1

glucosamine-6-phosphate [4] = variants of: B1; experiment: self-cleavage kobs at 10000 uM GlcN6P; higher = faster cleavage; RNA array
Method in brief: as §1

| Variant | self-cleavage kobs at 160 uM GlcN6P (glucosamine-6-phosphate [1]) [s⁻¹] | self-cleavage kobs at 2500 uM GlcN6P (glucosamine-6-phosphate [2]) [s⁻¹] | self-cleavage kobs at 640 uM GlcN6P (glucosamine-6-phosphate [3]) [s⁻¹] | self-cleavage kobs at 10000 uM GlcN6P (glucosamine-6-phosphate [4]) [s⁻¹] |
| --- | --- | --- | --- | --- |
| A14U G29C G40U | < 1e-05 | < 1e-05 |  |  |
| A33C U49G | < 1e-05 |  |  |  |
| A14C U30C | < 1e-05 |  |  |  |
| A14G C16U C34A G41A A52C | < 1e-05 | < 1e-05 |  |  |
| A15U G32U G43U U56G C58A G59C | < 1e-05 | < 1e-05 |  |  |
| A14G U49A A64G G66U | < 1e-05 |  |  |  |
| A14C A15U G32C C58U | < 1e-05 |  |  |  |
| A14G G35U G40A | < 1e-05 |  |  |  |
| A12G G40U G62A | < 1e-05 |  |  |  |
| G29A C58G U65G | < 1e-05 |  |  |  |
| A14C G32U G38U | < 1e-05 | < 1e-05 |  |  |
| A6G A14G C16U G32U G35C G41C C50A C71G | < 1e-05 | < 1e-05 |  |  |
| C67U C70U | 4.68e-05 ± 6.2e-06 | 0.000264 ± 2e-05 | 0.000132 ± 9.5e-06 | 0.000377 ± 3e-05 |
| A15G C58G G63C C68G | 0.000162 ± 4.4e-05 |  |  |  |
| C11G A15G U65C | < 1e-05 |  |  |  |
| C16U U30C G35A G40U G44U | < 1e-05 | < 1e-05 |  |  |
| G9A A33G G44U | < 1e-05 | < 1e-05 |  |  |

| Variant | self-cleavage kobs at 160 uM GlcN6P (glucosamine-6-phosphate [1]) [s⁻¹] | self-cleavage kobs at 2500 uM GlcN6P (glucosamine-6-phosphate [2]) [s⁻¹] | self-cleavage kobs at 640 uM GlcN6P (glucosamine-6-phosphate [3]) [s⁻¹] | self-cleavage kobs at 10000 uM GlcN6P (glucosamine-6-phosphate [4]) [s⁻¹] |
| --- | --- | --- | --- | --- |
| U69G C70A | 4.55e-05 ± 1.3e-05 | 7.85e-05 ± 1.2e-05 | 5.13e-05 ± 9.1e-06 |  |
| A15C G43C U55G | < 1e-05 |  |  |  |
| U30C U31C G38A | < 1e-05 | < 1e-05 |  |  |
| C11G G29U | < 1e-05 |  |  |  |
| C10U A12C G40C | < 1e-05 | < 1e-05 |  |  |
| C8U G35A U49C A64C C71A | < 1e-05 |  |  |  |
| A14C C50U | < 1e-05 |  |  |  |
| A14C A42G G62A | < 1e-05 |  |  | < 1e-05 |
| A33C G35C U45G A64C | < 1e-05 | < 1e-05 |  |  |
| U31G A53U C58U C71U | < 1e-05 |  |  |  |
| U30G C58G A64C C67G C71G | 5.89e-05 ± 2e-05 |  |  |  |
| G13C G41C | < 1e-05 |  |  |  |
| A6C C11U U57A C71U | < 1e-05 | < 1e-05 |  |  |
| G13C U55G | < 1e-05 |  |  |  |
| C11G C16U | < 1e-05 |  |  |  |
| C10G C16G A42G | < 1e-05 |  |  |  |
| G13U U47G A52C | < 1e-05 | < 1e-05 |  |  |
